# From PubChem BioAssay (Tox21)
# Values joined by “and” are separate entries in the source; they are usually repeats but may differ in a detail not shown here. Equal values may be shown once. Inconclusive means that the source gave no clear call. Such entries were picked first, then a sample of the others. Entries that show only a call come without a potency. For some of these results: Where the call is inconclusive, the potency comes from a doubtful curve fit. Active and inactive are the calls of the source. Calls follow the shape of the dose curve; as a rule, active = well fitted curve in the direction sought with a large enough effect in the repeat runs; inconclusive = weak or mixed curves; inactive = no such curve, though single readings can be large; an effect the other way counts as inactive or inconclusive.
# How the values were obtained:
# [1] = A CellTox Green Cytotoxicity Assay to monitor cytotoxicity in HEK293 cells - 40 hour (AID 1224871); also: potency is read from the fitted curve at half-maximal effect; nearly all actives have a fitted effect of over 45% in size
# In short: (§1)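 Fluorescence intensity, read at 0, 8, 16, 24, 32 and 40 h of compound treatment, reflected dye binding to DNA of dead HEK293 cells; compounds (23 nL, DMSO) were added 5 h after plating cells with reagent.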
# [2] = A CellTox Green Cytotoxicity Assay to monitor cytotoxicity in HEK293 cells - 24 hour (AID 1224875); also: nearly all actives have a fitted effect of over 45% in size; also: potency is read from the fitted curve at half-maximal effect
# In short: as §1
# [3] = A CellTox Green Cytotoxicity Assay to monitor cytotoxicity in HepG2 cells - 24 hour (AID 1224878); also: nearly all actives have a fitted effect of over 45% in size; also: potency is read from the fitted curve at half-maximal effect
# In short: (§2)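 Using 1536-well format, dye-containing HepG2 suspension was seeded, allowed 5 h at 37 C/5% CO2, dosed by pintool with compounds, positive and negative controls, and imaged for fluorescence across 40 h.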
# [4] = A CellTox Green Cytotoxicity Assay to monitor cytotoxicity in HEK293 cells - 32 hour (AID 1224881); also: nearly all actives have a fitted effect of over 40% in size; also: potency is read from the fitted curve at half-maximal effect
# In short: as §1
# [5] = A CellTox Green Cytotoxicity Assay to monitor cytotoxicity in HepG2 cells - 16 hour (AID 1224876); also: nearly all actives have a fitted effect of over 45% in size; also: potency is read from the fitted curve at half-maximal effect
# In short: as §2
# [6] = A CellTox Green Cytotoxicity Assay to monitor cytotoxicity in HepG2 cells - 40 hour (AID 1224879); also: potency is read from the fitted curve at half-maximal effect; nearly all actives have a fitted effect of over 40% in size
# In short: as §2
# [7] = qHTS RealTime-Glo MT Cell Viability Assay in HEK293 cells - 40 hour (AID 1224874); details: RealTime-Glo luminescence; max response: active compounds read low; also: nearly all actives have a fitted effect of over 50% in size; also: potency is read from the fitted curve at half-maximal effect
# In short: (§3)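 Viable HEK293 cells reduce a cell-permeant prosubstrate; the product diffuses out and is consumed by NanoLuc in the medium to give light. Compounds went in after a 5 h incubation and plates were read over the treatment course.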
# [8] = qHTS RealTime-Glo MT Cell Viability Assay in HEK293 cells - 16 hour (AID 1224872); also: nearly all actives have a fitted effect of over 50% in size; also: potency is read from the fitted curve at half-maximal effect
# In short: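 Reads taken at 0, 8, 16, 24, 32 and 40 h from the same wells. HEK293 cells (600/well) carried RealTime-Glo reagents from seeding, with compound added after a 5 h settle at 37 C.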
# [9] = qHTS RealTime-Glo MT Cell Viability Assay in HepG2 cells - 32 hour (AID 1224877); also: nearly all actives have a fitted effect of over 55% in size
# In short: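 HepG2 suspension premixed with RealTime-Glo reagents is plated at 600 cells per well and left 5 h at 37 C/5% CO2. Compounds in DMSO then go in, and bioluminescence reflecting viable cell number is recorded over 40 h.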
# [10] = qHTS RealTime-Glo MT Cell Viability Assay in HepG2 cells - 8 hour (AID 1224873); also: nearly all actives have a fitted effect of over 55% in size
# In short: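 HepG2 cells mixed with RealTime-Glo MT reagents (NanoLuc plus cell-permeant prosubstrate) were seeded at 600 cells/well, incubated 5 h at 37 C/5% CO2, then pinned with compounds in DMSO; nonlytic luminescence tracked viability during 40 h treatment.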
# [11] = qHTS RealTime-Glo MT Cell Viability Assay in HEK293 cells - 0 hour (AID 1224880)
# In short: as §3
# Tags tell the direction and shape of the fitted curve.
smiles,measurement,setting,value
NC1[C@H]2CN(c3nc4c(cc3F)c(=O)c(C(=O)O)cn4-c3ccc(F)cc3F)C[C@@H]12 (stereo partly drawn),Potency,[1],"inconclusive: 10.7 µM [activator, single point]"
same,Potency,[2],"inconclusive: 13.4 µM [activator, single point]"
same,Potency,[3],inactive
CC(=O)N[C@@H](CS)C(=O)O,Potency,[1],"inconclusive: 61.6 µM [activator, partial curve, poor fit]"
same,Potency,[2],"inconclusive: 54.9 µM [activator, single point]"
same,Potency,[4],"inconclusive: 54.9 µM [activator, single point]"
NC(=O)OCC(COC(N)=O)c1ccccc1,Potency,[1],"inconclusive: 54.9 µM [activator, single point]"
same,Potency,[2],"inconclusive: 54.9 µM [activator, single point]"
same,Potency,[5],"inconclusive: 54.9 µM [activator, single point]"
same,Potency,[3],"inconclusive: 54.9 µM [activator, single point]"
same,Potency,[6],"inconclusive: 61.6 µM [activator, single point]"
same,Potency,[4],"inconclusive: 54.9 µM [activator, single point]"
CC(C=O)Cc1ccc(C(C)(C)C)cc1 (stereo not drawn),Potency,[1],"inconclusive: 54.9 µM [activator, partial curve, poor fit]"
same,max response,[7],inactive: 0.145% and inactive: -7.53%
same,Potency,[4],"inconclusive: 48.9 µM [activator, single point]"
CC[C@@]1(c2ccccc2)NC(=O)N(C)C1=O,Potency,[8],inactive
Cc1c(OCC(F)(F)F)ccnc1CS(=O)c1nc2ccccc2[nH]1 (stereo not drawn),Potency,[8],active: 19.5 µM and active: 23.9 µM
CS(=O)(=O)OCCCCOS(C)(=O)=O,Potency,[8],inactive
same,Potency,[5],inactive
CC1=CC(O)CC(C)(C)C1 (stereo not drawn),Potency,[1],"inconclusive: 21.9 µM [activator, single point]"
same,Potency,[4],"inconclusive: 21.9 µM [activator, single point]"
CC(CCC(=O)O)C(=O)O (stereo not drawn),Potency,[8],"inconclusive: 0.777 µM [cytotoxic, single point]"
NCc1ccc(S(N)(=O)=O)cc1,Potency,[8],inactive
same,Potency,[9],inactive
COc1cc(C)nc(-n2nc(C)cc2OC)n1,Potency,[8],inactive
CCOC(C)=O,Potency,[8],inactive
same,Potency,[3],inactive
CC(C)CC(C)O (stereo not drawn),Potency,[8],inactive
CN1CCCN=C1COC(=O)C(O)(c1ccccc1)C1CCCCC1 (stereo not drawn),Potency,[8],"inconclusive: 26.8 µM [cytotoxic, partial curve, poor fit]"
same,Potency,[7],"inconclusive: 26.8 µM [cytotoxic, single point]"
C=CC1CO1 (stereo not drawn),Potency,[8],inactive
CO[Si](C)(C)OC,Potency,[8],inactive
CCOc1cc(OCC)c(C(=O)CCC(=O)O)cc1OCC,Potency,[10],inactive
CC(C)(C)C(=O)OCOC(=O)C1N2C(=O)CC2S(=O)(=O)C1(C)C (stereo not drawn),Potency,[10],inactive
same,max response,[7],inactive: 5.75%
same,Potency,[5],"inconclusive: 2.68 µM [activator, single point]"
same,Potency,[3],"inconclusive: 2.68 µM [activator, single point]"
C[C@]12C=CC(=O)C=C1CC[C@@H]1[C@@H]2C(=O)C[C@@]2(C)[C@H]1CC[C@]2(O)C(=O)CO,Potency,[8],inactive
same,Potency,[2],inactive
same,Potency,[5],inactive
same,Potency,[11],"inconclusive: 49.2 µM [falling, single point]"
N#CC1(c2ccc(F)cc2)CCC(=O)CC1,Potency,[8],inactive
C=C(C)C(=O)OCCOc1ccccc1,Potency,[8],inactive
C[C@@H]1C[C@H]2[C@@H]3C[C@H](F)C4=CC(=O)C(Cl)=C[C@]4(C)[C@@]3(F)[C@@H](O)C[C@]2(C)[C@@]1(O)C(=O)CO,Potency,[8],inactive
CC[N+](C)(CC)CCOC(=O)C1c2ccccc2Oc2ccccc21,Potency,[10],inactive
COCCOc1cc2cc(C(=O)NC3CCN(C(C)C)CC3)n(CC(=O)Nc3ccc(Cl)cn3)c2cn1,Potency,[8],"inconclusive: 34.3 µM [cytotoxic, partial curve]"
C[C@H]1C[C@H](O)c2ccsc2S1(=O)=O,Potency,[8],inactive
same,Potency,[10],inactive
O=Cc1ccccc1O,Potency,[10],inactive
C=CC(=O)[O-].C=CC(=O)[O-].[Zn+2],Potency,[8],inactive
same,Potency,[4],inactive
NCCNCCO,Potency,[8],inactive
same,Potency,[4],inactive
CC(=O)OC/C=C(/C)CCC=C(C)C,Potency,[8],inactive
CCCCCCOc1ccccc1C(N)=O,Potency,[8],"inconclusive: 8.49 µM [cytotoxic, partial curve]"
same,Potency,[6],"inconclusive: 26.8 µM [activator, single point]"
CC(=O)Nc1ccc(C)cc1C,Potency,[1],"inconclusive: 0.347 µM [activator, partial curve, poor fit]"
same,Potency,[4],"inconclusive: 0.49 µM [activator, partial curve, poor fit]"
